Assay results from PubChem BioAssay AID504444 (National Center for Advancing Translational Sciences (NCATS), 2011).
About 7,500 (2.1%) of roughly 360,000 compounds were called active. Inconclusive results (about 20%) are left out. Calls come from the whole dose curve; as a rule, active = well fitted inhibition curve with a large enough effect; inconclusive = small, poorly fitted or top-dose-only effect, or effect the other way; inactive = flat fitted curve, though single readings scatter. This is a selection; strong and weak results do not stand in their true shares. A structure can be active in one record and inactive in another.

Assay: Nrf2 qHTS screen for inhibitors; note: nearly all actives have a fitted effect of over 60% in size
Details: A549 ARE-Fluc reporter, luciferase luminescence, 18-24 h; series mostly up to 46 µM; activity change, negative = inhibition: at the top concentration
How it was run: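 Two sequential reads on A549 ARE_Fluc cells exposed to compound for 18-24 h: a CellTiter-Fluor fluorescence read for viability, then a luciferase luminescence read for Nrf2/ARE activity.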
% is set by controls: 0 for no effect and ±100 for the full control effect; potency is the fitted concentration of half-maximal effect.

Row | Structure (SMILES) | activity change, negative = inhibition | Potency
1 | COc1cccc(N2CCN(C(=O)c3cc4c(=O)n(Cc5ccccc5)ccc4nc3C)CC2)c1 | inactive: 3.62% | –
2 | CCC1(C)Cc2c(sc3[nH]c(=S)n(Cc4ccccc4)c(=O)c23)CO1 (stereo not drawn) | – | active: 16.4 µM
3 | OCC[C@@H]1C[C@H](O)[C@@H](O)[C@@]2(Cc3ccccc3CO2)O1 | inactive: -7.48% | –
4 | Cc1ncc(C[n+]2csc(CCO)c2C)c(N)n1 | inactive: 2.14% | –
5 | Cc1c(Cl)cnc(NC(=O)COC(=O)[C@@H](NC(=O)c2ccco2)C(C)C)c1Cl | inactive: 5.64% | –
6 | COc1ccc(OC2CCN(S(=O)(=O)c3ccc(OC)cc3)CC2)cc1 | inactive: -1.62% | –
7 | C=CC[C@H](CC(=O)N(CCO)Cc1ccccc1)C(=O)N[C@H](C)COC(=O)[C@@H](CC=C)CC(=O)OC(C)(C)C | inactive: -17.3% | –
8 | O=C(CCCN1C(=O)/C(=C/c2cccs2)SC1=S)Nc1cccnc1 | inactive: 4.05% | –
9 | C[C@@H]1CCC[C@]2(O[C@H](CCO)C[C@H](O)[C@H]2O)O1 | inactive: -1.24% | –
10 | COC(=O)c1cc(S(=O)(=O)NCC2CCN(Cc3ccc(F)cc3)CC2)cn1C | inactive: -9.48% | –
11 | COc1ccc(C2=NS(=O)(=O)N(C)C(C(=O)Nc3cc(C)ccc3O)=C2)cc1OC | inactive: -7.57% | –
12 | O=C(Nc1nnc(S(=O)(=O)N2CCCCC2)s1)c1ccc(Cl)cc1 | inactive: -6.23% | –
13 | CCOc1ccccc1CNC(=O)c1nn(C)c2c1CS(=O)(=O)c1ccccc1-2 | inactive: -22.6% | –
14 | CC(C)(C)OC(=O)C[C@H]1C/C=C\C[C@H](CC(=O)N[C@H](CO)Cc2ccccc2)C(=O)N[C@H](Cc2ccccc2)COC1=O | inactive: -15.6% | –
15 | Cc1ccccc1-c1nc(CS(=O)CC(=O)NCCc2ccc(Cl)cc2)c(C)o1 (stereo not drawn) | inactive: 8.31% | –
16 | COc1cccc(NC(=O)c2ccc(CN3CCc4ccccc4C3)cc2)c1 | – | active: 14.6 µM
17 | O=C1N[C@@H](c2ccccc2)COC(=O)[C@H](Cc2ccc(F)cc2)C/C=C\C[C@@H]1CC(=O)N(CCO)Cc1ccccc1 | inactive: -25.7% | –
18 | CCOC(=O)c1sc2nc(C)nc(NCc3ccccc3OC)c2c1C | – | active: 20.6 µM
19 | Cn1ncc2c(O/N=C(\N)c3ccc(C(C)(C)C)cc3)ncnc21 | – | active: 18.4 µM
20 | Cc1ccc(SCC(c2ccccc2)N2CCN(CCc3ccccc3)CCC2=O)cc1 (stereo not drawn) | inactive: -3.68% | –
21 | Cc1ccc2nsnc2c1NC(=O)c1ccc(-c2cc(Cl)ccc2Cl)o1 | – | active: 13 µM
22 | CC1CN(S(=O)(=O)c2cccc(C(=O)Nc3ccccc3N3CCCCC3)c2)CC(C)O1 (stereo not drawn) | – | active: 16.4 µM

Row | Structure (SMILES) | activity change, negative = inhibition | Potency
23 | CCC1CN(C(=O)NCc2ccccc2)c2cc(Cl)ccc2O1 (stereo not drawn) | inactive: 19.1% | –
24 | C[C@H](CO)N1C[C@H](C)[C@@H](CN(C)C(=O)Nc2ccc(C(F)(F)F)cc2)Oc2ccc(NC(=O)NC3CCCCC3)cc2C1=O | inactive: 12.5% | –
25 | CC(=O)c1ccc(N2CCN(C(=O)CCCn3c(=O)[nH]c4ccsc4c3=O)CC2)cc1 | inactive: -4.5% [at 9.27 µM] | –
26 | O=C(Nc1nnc(S(=O)(=O)N2CCCCCC2)s1)c1ccc(Cl)cc1 | inactive: -10% | –
27 | COc1ccccc1N1CCN(C(=O)CNS(=O)(=O)c2ccc(Br)s2)CC1 | inactive: -0.0254% | –
28 | CC1CCCCN1C(=O)CCS(=O)(=O)c1cc2c(cc1Cl)NC(=O)CO2 (stereo not drawn) | inactive: 14% | –
29 | Cc1ccc(SCC(Cc2ccccc2)N2CCN(CC(C)C)CCC2=O)cc1 (stereo not drawn) | inactive: 2.56% | –
30 | COc1ccc(NC(=O)c2nc[nH]c2C(=O)N[C@H](C)c2ccccc2)cc1 | inactive: -26.9% | –
31 | Cc1cccc(NS(=O)(=O)c2nnc(NC(=O)c3cccc(C)c3)s2)c1 | inactive: 2.03% | –
32 | CCc1ccc(S(=O)(=O)Nc2cc3c(cc2N2CCOCC2)n(C)c(=O)c(=O)n3C)cc1 | inactive: -10.9% | –
33 | O=C(C1=C[C@@H](c2ccc(Br)cc2)C[C@@H](OCCCCO)O1)N1CCN(Cc2ccc3c(c2)OCO3)CC1 | inactive: -21.6% | –
34 | O=C(Nc1ccc(C(F)(F)F)cc1)C1CCN(c2cnccn2)CC1 | inactive: 15.4% | –
35 | O=C1N[C@@H](Cc2ccccc2)COC(=O)[C@H](Cc2ccc(F)cc2)C/C=C\C[C@@H]1CC(=O)N(CCO)Cc1ccccc1 | inactive: -20.7% | –
36 | COC(=O)/C=C1/S/C(=N/N=C/c2ccco2)NC1=O | inactive: -5.02% | –
37 | COc1ccc2ccc3c(c2c1)N=C[C@]1(O3)N(C)c2ccccc2C1(C)C | inactive: -15.1% | –
38 | O=C1NCCOC(=O)[C@@H](Cc2ccc(F)cc2)C/C=C\C[C@@H]1CC(=O)N(CCO)Cc1ccccc1 | inactive: -3.74% | –
39 | O=C(c1ccc2c(c1)N(Cc1ccc(F)cc1)C(=O)c1ccccc1S2(=O)=O)N1CCN(c2ccccn2)CC1 | inactive: 17.2% | –
40 | CC1=CC(C)(C)N(S(=O)(=O)c2ccc(C)cc2)c2ccccc21 | inactive: -6.98% | –
41 | Fc1ccc(SCCc2ccccn2)cc1 | inactive: 11.5% | –
42 | O=C(O)/C=C\C(=O)NCc1ccccc1 | inactive: 1.23% | –
43 | Cc1ccc(-n2c(-c3ccccc3)c[n+]3c2CCC3)cc1 | – | active: 5.8 µM
44 | C=CC[C@@H](CC(=O)N(CCO)Cc1ccccc1)C(=O)N[C@@H](C)COC(=O)[C@@H](CC=C)Cc1ccc(F)cc1 | inactive: 9.66% | –

Row | Structure (SMILES) | activity change, negative = inhibition | Potency
45 | COc1ccc(OC)c(NC(=O)C2CCN(S(=O)(=O)c3ccc4c(c3)CC(C)N4C(C)=O)CC2)c1 (stereo not drawn) | inactive: -19.9% | –
46 | COC(=O)C1=C[C@@H](C(=O)OC)C2C3=C(C(=O)[C@@]2(C)NC(=O)c2ccccc2)[C@H](C)n2c(=O)n(-c4ccccc4)c(=O)n2[C@@H]3C1 (stereo partly drawn) | inactive: 1.68% | –
47 | COc1cc(C(CCN2CCOCC2)c2c(OC)cc(OC)c3c(C)cc(=O)oc23)cc(OC)c1OC (stereo not drawn) | inactive: -2.01% | –
48 | Oc1ccc(CNCc2ccccc2F)c2cccnc12 | – | active: 1.3 µM
49 | C[C@@]12CCC=C[C@H]1[C@H](c1ccc3ccccc3c1Br)N(Cc1ccccc1)C2=O | inactive: -17.3% | –
50 | CN(C)c1ccc(O)c2c1CC1CC3[C@@H](N(C)C)C(=O)C(C(N)=O)=C(O)[C@]3(O)C(=O)C1=C2O (stereo partly drawn) | inactive: -6.02% | –
51 | Cc1ccc(NC(=O)CN(C)S(=O)(=O)c2ccc3c(c2)n(C)c(=O)c(=O)n3C)c(C)c1 | inactive: 4.28% | –
52 | O=S(=O)(c1ccc2ccccc2c1)N1CCOCC1 | inactive: 15.7% | –
53 | C[C@@H]1CC[C@]2(O[C@@H](CCO)C[C@@H](O)[C@@H]2O)O1 | inactive: 3.4% | –
54 | Cc1ccc(C)c(CNS(=O)(=O)c2ccc3c(c2)C(C)(C)C(=O)N3C)c1 | inactive: -12.6% | –
55 | O=C(Nc1ccc(-c2nc3ccccc3s2)cc1)c1cc(-n2cnnc2)ccc1Cl | – | active: 2.31 µM
56 | COC(C[C@@H]1O[C@@H]1[C@@H](O)[C@H](C)OCc1ccccc1)OC | inactive: 17.7% | –
57 | COC(=O)c1c(NC(=O)CSc2nncs2)sc2c1CCCCC2 | – | active: 18.4 µM
58 | CC(=O)Nc1ccc(/C=C/c2noc(-c3ccccc3O)n2)cc1 | inactive: 24% | –
59 | CC(=O)c1ccc(N2CCN(S(=O)(=O)c3cc4[nH]c(=O)c(=O)[nH]c4cc3C)CC2)cc1 | inactive: 0.877% | –
60 | CCOc1ccc(C(=O)C2CCN(CC(=O)Nc3ccccc3N3CCOCC3)CC2)cc1 | – | active: 11.6 µM
61 | O=C1Cc2cc(S(=O)(=O)N3CCN(c4cccc(Cl)c4)CC3)ccc2N1 | inactive: -11.9% | –
62 | COc1cccc(NC(=O)CCN2C(=O)c3ccccc3Sc3ncccc32)c1 | inactive: -25.6% | –
63 | CCOC(=O)CC(=O)Nc1ncnc2c1C(c1ccccc1)c1c(ccc3ccccc13)O2 (stereo not drawn) | inactive: 8.85% | –
64 | COc1ccc(-c2c(C#N)c(SCC(=O)c3cc4ccccc4oc3=O)nc(C)c2C(=O)Nc2ccccc2)cc1 | – | active: 6.51 µM
65 | COc1ccc(CC(=O)Nc2c(C(=O)N3CCN(c4ccccc4)CC3)oc3ccccc23)cc1OC | inactive: -0.793% | –
66 | COc1ccc(CNC(=O)CCNS(=O)(=O)c2ccc3c(c2)oc(=O)n3C)cc1 | inactive: 10.3% | –

Row | Structure (SMILES) | activity change, negative = inhibition | Potency
67 | CC(C)C[C@H](NC(=O)c1[nH]cnc1C(=O)N[C@H](C)c1ccccc1)C(=O)OCc1ccccc1 | inactive: 2.72% | –
68 | Cc1cccc(NC(=O)CN2CCN(C(=O)CN3C(=O)NC4(CC(C)CC(C)(C)C4)C3=O)CC2)c1C (stereo not drawn) | – | active: 16.4 µM
69 | Cc1nnc(N/N=C/c2cc([N+](=O)[O-])c(N3CCC(C)CC3)cc2N2CCC(C)CC2)n1N | – | active: 18.4 µM
70 | COCCNC(=O)CCC(=O)NNc1nc2ccccc2c2nc(C)nn12 | inactive: 4.74% | –
71 | CCCc1cc(=O)[nH]c(SCC(=O)N2CCN(c3ccccc3)CC2)n1 | inactive: 4.13% | –
72 | COc1cccc(CNC(=O)Cn2ncc3c(=O)oc4ccccc4c32)c1 | inactive: -4.56% | –
73 | CC[C@H]1CCCCc2ccccc2[C@@H](C(=O)C[C@@H](O)CC(C)=O)OC1=O | inactive: 28.7% | –
74 | CC[N+](CC)(CC#Cc1ccccc1)CC#Cc1ccccc1 | – | active: 14.6 µM
75 | COCCCNC(=O)c1cn(CC(C)C)c(=O)c2c1c1ccccc1n2C | inactive: 7.92% | –
76 | COc1ccc(CCNC(=O)CN(c2ccccc2OC)S(=O)(=O)c2ccc(C)cc2)cc1 | inactive: -21.9% | –
77 | Cc1ccc(NC(=O)CSc2nc(C)c(Cc3ccccc3)c(=O)[nH]2)cc1 | inactive: -8.28% | –
78 | O=C(Nc1sc2c(c1C(=O)NCC1CCCO1)CCCC2)c1cccs1 (stereo not drawn) | – | active: 20.6 µM
79 | O=C(COC(=O)CNC(=O)c1ccccc1Cl)Nc1cc(C(F)(F)F)ccc1Cl | inactive: 15.5% | –
80 | CC1(O)CC(c2ccc(Cl)cc2)=NN1C(=O)c1ccc([N+](=O)[O-])cc1 (stereo not drawn) | – | active: 18.4 µM
81 | Cc1cc2[nH]c(=O)c(=O)[nH]c2cc1S(=O)(=O)N1CCN(c2cccc(Cl)c2)CC1 | inactive: -15.7% | –
82 | Cn1nc(CC(=O)Nc2ccc(N3CCN(C(=O)OC(C)(C)C)CC3)cc2)c2ccccc2c1=O | – | active: 10.3 µM
83 | CCOc1ccc(N/C(C)=C/C(=O)c2ccc3c(c2)OCCO3)cc1 | inactive: 5.63% | –
84 | COc1ccccc1N1CCN(C(=O)C2CCCN(S(=O)(=O)c3ccc4c(c3)CCCN4C(C)=O)C2)CC1 (stereo not drawn) | – | active: 9.2 µM
85 | COc1ccc(C2/C=C\CN(C(=O)c3ccc(C)cc3)CC(=O)N2Cc2ccc(F)cc2)cc1 (stereo not drawn) | inactive: 9.96% | –
86 | Cc1ccccc1N(C)S(=O)(=O)c1nnc(NC(=O)c2ccco2)s1 | inactive: -5.73% | –
87 | Cc1ccc(Oc2nnc(-c3cccs3)c3ccccc23)cc1C | – | active: 18.4 µM
88 | NS(=O)(=O)c1ccc(CCNC(=O)C2CCN(c3ncnc4c3nc3n4CCCCC3)CC2)cc1 | inactive: 13.9% | –
